Among the data in PMC12820563, “FoxP3 forms a head-to-head dimer in vivo and stabilizes its multimerization on adjacent microsatellites” are binding signal values, retold here.

This is one part of the list.

The target of the experiment is T1, MBP-FoxP1dN (Mus musculus, UniProt P58462 326-579).
T1 sequence: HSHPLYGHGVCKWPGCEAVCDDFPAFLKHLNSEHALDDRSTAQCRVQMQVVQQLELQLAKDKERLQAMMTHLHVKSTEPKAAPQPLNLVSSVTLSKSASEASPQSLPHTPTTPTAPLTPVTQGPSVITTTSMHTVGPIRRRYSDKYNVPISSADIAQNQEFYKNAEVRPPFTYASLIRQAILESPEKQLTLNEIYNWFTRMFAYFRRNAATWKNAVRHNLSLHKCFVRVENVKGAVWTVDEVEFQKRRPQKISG
Nature of the experiment: PD-seq (MBP pull-down with sequencing); 20 mM Tris-HCl pH 7.5, 100 mM NaCl, 1.5 mM MgCl2, 0.4 uM protein, 0.1 uM dsDNA library, 30 min, room temperature, amylose pull-down; high values mean tight binding. Particulars: protein: recombinant; tags: His6-MBP; chain copies: 2; dsDNA, one strand shown. The essentials:
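Binding is given as reads-per-million enrichment, pull-down over input, with replicates pooled. The bait was an N-terminus-lacking mouse FoxP3 or FoxP1 fragment with a His6-MBP tag, expressed in E. coli and used at 0.4 µM with 0.1 µM Klenow-filled degenerate double-stranded DNA library for 30 min at room temperature in Tris pH 7.5 buffer with NaCl and MgCl2. Amylose resin pull-down with three washes was followed by proteinase K release, PCR barcoding and Illumina sequencing.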
Consider “GATGATTGTTCTCCCAGCTGATGAATTTCTTCAATCGAGTAAACAAATTTTCCTAATCTTTCTGTTCAAGCGCCATCTAC”, for which the binding signal was 0.964 RPM ratio (pull-down/input). The figure for “GATGATTGTTCTCCCAGCTGATGAATTTCTCAATTCGAGTAAACAAATTTTCCTAATCTTTCTGTTCAAGCGCCATCTAC” is 0.994 RPM ratio (pull-down/input); for “GATGATTGTTCTCCCAGCTGATGAATTAGCACCGTCGAGTAAACAAATTTTCCTAATCTTTCTGTTCAAGCGCCATCTAC” it is 0.962 RPM ratio (pull-down/input); for “GATGATTGTTCTCCCAGCTGATGAATTCGCTAGTTCGAGTAAACAAATTTTCCTAATCTTTCTGTTCAAGCGCCATCTAC” it is 0.856 RPM ratio (pull-down/input). The value for “GATGATTGTTCTCCCAGCTGATGAATTTTAGTTCTCGAGTAAACAAATTTTCCTAATCTTTCTGTTCAAGCGCCATCTAC” was 0.894 RPM ratio (pull-down/input); that for “GATGATTGTTCTCCCAGCTGATGAATTGAGTTGGTCGAGTAAACAAATTTTCCTAATCTTTCTGTTCAAGCGCCATCTAC” was 0.91 RPM ratio (pull-down/input).

As to “GATGATTGTTCTCCCAGCTGATGAATTAGGTAACTCGAGTAAACAAATTTTCCTAATCTTTCTGTTCAAGCGCCATCTAC”, the binding signal was 0.918 RPM ratio (pull-down/input). The value for “GATGATTGTTCTCCCAGCTGATGAATTCAATAGATCGAGTAAACAAATTTTCCTAATCTTTCTGTTCAAGCGCCATCTAC” was 0.887 RPM ratio (pull-down/input). The figure for “GATGATTGTTCTCCCAGCTGATGAATTACTGGGTTCGAGTAAACAAATTTTCCTAATCTTTCTGTTCAAGCGCCATCTAC” is 0.938 RPM ratio (pull-down/input). “GATGATTGTTCTCCCAGCTGATGAATTAAGGAGATCGAGTAAACAAATTTTCCTAATCTTTCTGTTCAAGCGCCATCTAC”: the binding signal was 0.85 RPM ratio (pull-down/input). The value for “GATGATTGTTCTCCCAGCTGATGAATTCGGCAGCTCGAGTAAACAAATTTTCCTAATCTTTCTGTTCAAGCGCCATCTAC” was 0.875 RPM ratio (pull-down/input). Take “GATGATTGTTCTCCCAGCTGATGAATTGGAATCATCGAGTAAACAAATTTTCCTAATCTTTCTGTTCAAGCGCCATCTAC”: the binding signal is 0.933 RPM ratio (pull-down/input). Consider “GATGATTGTTCTCCCAGCTGATGAATTCTGAAAGTCGAGTAAACAAATTTTCCTAATCTTTCTGTTCAAGCGCCATCTAC”, for which the binding signal was 0.87 RPM ratio (pull-down/input). Turning to “GATGATTGTTCTCCCAGCTGATGAATTGGGCCTGTCGAGTAAACAAATTTTCCTAATCTTTCTGTTCAAGCGCCATCTAC”, the binding signal is 0.806 RPM ratio (pull-down/input). The value for “GATGATTGTTCTCCCAGCTGATGAATTGTTAGGTTCGAGTAAACAAATTTTCCTAATCTTTCTGTTCAAGCGCCATCTAC” was 1.05 RPM ratio (pull-down/input); that for “GATGATTGTTCTCCCAGCTGATGAATTAAGGGACTCGAGTAAACAAATTTTCCTAATCTTTCTGTTCAAGCGCCATCTAC” was 0.785 RPM ratio (pull-down/input); that for “GATGATTGTTCTCCCAGCTGATGAATTCGAGCTCTCGAGTAAACAAATTTTCCTAATCTTTCTGTTCAAGCGCCATCTAC” was 0.781 RPM ratio (pull-down/input).

Regarding “GATGATTGTTCTCCCAGCTGATGAATTGTGGTGGTCGAGTAAACAAATTTTCCTAATCTTTCTGTTCAAGCGCCATCTAC”, the binding signal was 1.06 RPM ratio (pull-down/input). As for “GATGATTGTTCTCCCAGCTGATGAATTACCTCTATCGAGTAAACAAATTTTCCTAATCTTTCTGTTCAAGCGCCATCTAC”, the binding signal is 0.951 RPM ratio (pull-down/input). With “GATGATTGTTCTCCCAGCTGATGAATTTCGAGTATCGAGTAAACAAATTTTCCTAATCTTTCTGTTCAAGCGCCATCTAC”, the binding signal is 0.998 RPM ratio (pull-down/input). The value for “GATGATTGTTCTCCCAGCTGATGAATTTGAAATATCGAGTAAACAAATTTTCCTAATCTTTCTGTTCAAGCGCCATCTAC” was 0.972 RPM ratio (pull-down/input). The figure for “GATGATTGTTCTCCCAGCTGATGAATTTCCGAGGTCGAGTAAACAAATTTTCCTAATCTTTCTGTTCAAGCGCCATCTAC” is 0.721 RPM ratio (pull-down/input). The figure for “GATGATTGTTCTCCCAGCTGATGAATTCTTTGCTTCGAGTAAACAAATTTTCCTAATCTTTCTGTTCAAGCGCCATCTAC” is 0.901 RPM ratio (pull-down/input); for “GATGATTGTTCTCCCAGCTGATGAATTAGAGGCCTCGAGTAAACAAATTTTCCTAATCTTTCTGTTCAAGCGCCATCTAC” it is 0.968 RPM ratio (pull-down/input). Consider “GATGATTGTTCTCCCAGCTGATGAATTCTACGAGTCGAGTAAACAAATTTTCCTAATCTTTCTGTTCAAGCGCCATCTAC”, for which the binding signal is 0.776 RPM ratio (pull-down/input).

As for “GATGATTGTTCTCCCAGCTGATGAATTGTGCGAATCGAGTAAACAAATTTTCCTAATCTTTCTGTTCAAGCGCCATCTAC”, the binding signal is 1.1 RPM ratio (pull-down/input). With “GATGATTGTTCTCCCAGCTGATGAATTAATCCCTTCGAGTAAACAAATTTTCCTAATCTTTCTGTTCAAGCGCCATCTAC”, the binding signal is 0.898 RPM ratio (pull-down/input).

Regarding “GATGATTGTTCTCCCAGCTGATGAATTTGTTACGTCGAGTAAACAAATTTTCCTAATCTTTCTGTTCAAGCGCCATCTAC”, the binding signal was 1.25 RPM ratio (pull-down/input). The value for “GATGATTGTTCTCCCAGCTGATGAATTCGAACGATCGAGTAAACAAATTTTCCTAATCTTTCTGTTCAAGCGCCATCTAC” was 0.851 RPM ratio (pull-down/input); that for “GATGATTGTTCTCCCAGCTGATGAATTTAAACAGTCGAGTAAACAAATTTTCCTAATCTTTCTGTTCAAGCGCCATCTAC” was 1.06 RPM ratio (pull-down/input). As for “GATGATTGTTCTCCCAGCTGATGAATTGGACTATTCGAGTAAACAAATTTTCCTAATCTTTCTGTTCAAGCGCCATCTAC”, the binding signal is 0.893 RPM ratio (pull-down/input). The value for “GATGATTGTTCTCCCAGCTGATGAATTAGTGCTATCGAGTAAACAAATTTTCCTAATCTTTCTGTTCAAGCGCCATCTAC” was 1.15 RPM ratio (pull-down/input); that for “GATGATTGTTCTCCCAGCTGATGAATTACCTGAGTCGAGTAAACAAATTTTCCTAATCTTTCTGTTCAAGCGCCATCTAC” was 0.889 RPM ratio (pull-down/input).

As to “GATGATTGTTCTCCCAGCTGATGAATTAGAAGGCTCGAGTAAACAAATTTTCCTAATCTTTCTGTTCAAGCGCCATCTAC”, the binding signal is 0.8 RPM ratio (pull-down/input). As for “GATGATTGTTCTCCCAGCTGATGAATTATAAGCTTCGAGTAAACAAATTTTCCTAATCTTTCTGTTCAAGCGCCATCTAC”, the binding signal is 0.917 RPM ratio (pull-down/input). The figure for “GATGATTGTTCTCCCAGCTGATGAATTCCTTGGTTCGAGTAAACAAATTTTCCTAATCTTTCTGTTCAAGCGCCATCTAC” is 0.835 RPM ratio (pull-down/input); for “GATGATTGTTCTCCCAGCTGATGAATTATGAGGTTCGAGTAAACAAATTTTCCTAATCTTTCTGTTCAAGCGCCATCTAC” it is 0.872 RPM ratio (pull-down/input).

Take “GATGATTGTTCTCCCAGCTGATGAATTGCGCGGCTCGAGTAAACAAATTTTCCTAATCTTTCTGTTCAAGCGCCATCTAC”: the binding signal is 0.972 RPM ratio (pull-down/input). The figure for “GATGATTGTTCTCCCAGCTGATGAATTGGGAAGATCGAGTAAACAAATTTTCCTAATCTTTCTGTTCAAGCGCCATCTAC” is 0.839 RPM ratio (pull-down/input); for “GATGATTGTTCTCCCAGCTGATGAATTCGCCACATCGAGTAAACAAATTTTCCTAATCTTTCTGTTCAAGCGCCATCTAC” it is 0.978 RPM ratio (pull-down/input).
